According to PubChem BioAssay AID651820 (National Center for Advancing Translational Sciences (NCATS), 2012):
Among all 340,000 compounds or so, about 12,000 (3.5%) were called active. Inconclusive means that the source gave no clear call. Such entries were picked first, then a sample of the others. Calls follow the shape of the dose curve; as a rule, active = well fitted inhibition curve with a large enough effect; inconclusive = small, poorly fitted or top-dose-only effect, or another doubt; inactive = no such curve, though single readings can be large or run the other way. No potency is given beside an inconclusive call; the fits are too rough.

Test: qHTS Assay for Inhibitors of Hepatitis C Virus (HCV)
Conditions: Huh7.5.1 HCVcc-Cre (HCVcc is cell-culture hepatitis C virus) infection, luciferase reporter, 44 h; series mostly up to 41.8 µM
How it was run: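 Antiviral activity was scored by luciferase reporter output from cells infected with HCVcc-Cre (~0.5 moi) in presence of compound, 44 h infection period, cells seeded 1,000/well 4 h prior.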
Potency is read from the fitted curve at half-maximal effect; tags tell the direction and shape of the fitted curve.

Row | SMILES | Potency
1 | N#CCCN(C(=O)COC(=O)c1cc2ccccc2oc1=O)c1ccccc1 | inactive
2 | CCOC(=O)C1=C(CN2CCN(C(=O)c3ccco3)CC2)NC(=O)NC1c1ccc(F)cc1 (stereo unspecified) | inconclusive [inhibitor, single point]
3 | CC(C)N(Cc1ccccc1)C(=O)/C=C/c1ccccc1[N+](=O)[O-] | inconclusive [inhibitor, single point]
4 | Cc1c(S(=O)(=O)Nc2ccc3c(c2)OCCO3)c(=O)n(C)c(=O)n1C | inactive
5 | O=C(CSc1nc2ccccc2c2nc3ccccc3n12)NCc1ccco1 | inconclusive [inhibitor, single point]
6 | CCOc1ccccc1OCC(=O)NNC(=S)NC1CCCCC1 | inconclusive [inhibitor, single point]
7 | C=CC[C@@H](CC(=O)N[C@@H](CO)Cc1ccccc1)C(=O)N[C@H](COC(=O)[C@H](CC=C)CC(=O)OC(C)(C)C)Cc1ccccc1 | inactive
8 | CCC(C)NC(=O)NCc1ccccc1F (stereo unspecified) | inactive
9 | O=C(Nc1ccccc1F)N1CCC(NC(=O)C23CC4CC(CC(C4)C2)C3)CC1 | inactive
10 | CC(=O)c1ccc(NC(=O)c2ccccc2Sc2ncnc3sc(C)c(C)c23)cc1 | inactive
11 | COc1ccc(C(=O)Nc2nc(-c3ccc(S(=O)(=O)N4CCOCC4)cc3)cs2)cc1 | active: 35.5 µM
12 | COc1cc(OC)cc(C(=O)N[C@H](C(=O)OCc2cc(=O)oc3cc(C)ccc23)C(C)C)c1 | inconclusive [inhibitor, partial curve]
13 | Cc1ccc(/C=C2\SC(=S)N(CCCC(=O)NNC(=O)c3ccccc3O)C2=O)cc1 | inconclusive [inhibitor, full curve, poor fit]
14 | COc1cc(C(=O)c2c(C)c(CCC#N)n3ccccc23)cc(OC)c1OC | inactive
15 | Cc1cccc(C2=NN(c3ccccc3)[C@H](CO)[C@H]2c2ccccc2)c1 | inconclusive [inhibitor, single point]
16 | COc1ccc(N2C(=O)CC(NNc3nc4ccccc4s3)C2=O)cc1 (stereo unspecified) | inactive
17 | Cc1cc(NC(=O)Cc2ccsc2)ccc1Br | inconclusive [inhibitor, single point]
18 | Cc1cccc(/C=N/NC(=O)c2c(-c3ccccc3)noc2C)c1O | inconclusive [inhibitor, single point]
19 | O=C(CCCCC(=O)NNC(=O)COc1ccccc1)NNC(=O)COc1ccccc1 | inactive
20 | COCCNC(=O)c1cc(-c2ccncc2)nc2ccc(S(=O)(=O)N3CCOCC3)cc12 | inconclusive [inhibitor, partial curve]
21 | Cc1ccc(OCC(=O)Nc2ccc3oc(=O)ccc3c2)c(C)c1 | inconclusive [inhibitor, single point]
22 | CCn1c(C)cc(/C=C2/NC(=O)N(Cc3ccccc3F)C2=O)c1C | inconclusive [inhibitor, single point]
23 | CCN(C(=O)COc1cccnc1[N+](=O)[O-])C1CCS(=O)(=O)C1 (stereo unspecified) | inconclusive [inhibitor, full curve]
24 | Cc1cccn2c(=O)c(/C=C(\C#N)C(=O)NCc3ccco3)c(N3CCCCCC3)nc12 | inconclusive [inhibitor, partial curve]

Row | SMILES | Potency
25 | CC(C(=O)Nc1cccc([N+](=O)[O-])c1)[n+]1ccccc1 (stereo unspecified) | inactive
26 | C=CCN(C(=O)c1csnn1)C(C(=O)NC1CCCC1)c1ccc(F)cc1 (stereo unspecified) | inactive
27 | CCN(CC)CCNC(=O)C1(O)c2cc(Br)ccc2NC(=O)N1c1c(F)cccc1F (stereo unspecified) | inactive
28 | c1ccc2nc(-c3ccncc3)ccc2c1 | inactive
29 | O=c1c2ccccc2c(C=NCCc2ccccc2)c(O)n1Cc1ccccc1 | inconclusive [inhibitor, partial curve]
30 | O=C1C(F)=CC(COC(c2ccccc2)(c2ccccc2)c2ccccc2)OC1n1cc(F)c(=O)[nH]c1=O (stereo unspecified) | inconclusive [inhibitor, full curve]
31 | O=C(CN1C(=O)C2C3C=CC(C3)C2C1=O)NCCC1=CCCCC1 (stereo unspecified) | inactive
32 | O=C(COc1coc(CN2CCN(c3ccccc3)CC2)cc1=O)Nc1ccccc1F | inconclusive [inhibitor, partial curve, poor fit]
33 | COc1cc(C2C(C(=O)c3ccc(C)o3)=C(O)C(=O)N2c2cc(C)on2)cc(Br)c1O (stereo unspecified) | inactive
34 | Cc1nonc1OC(C)CNc1ccc([N+](=O)[O-])cc1 (stereo unspecified) | inactive
35 | C/C(=N/Nc1ccc(C)cc1)C1(C)N(O)C(C)(C)C(c2ccco2)=[N+]1[O-] (stereo unspecified) | inconclusive [inhibitor, partial curve]
36 | O=C(c1ccco1)N1CCN(C(c2ccccn2)c2nnnn2C2CCCC2)CC1 (stereo unspecified) | inactive
37 | CCN(CC)S(=O)(=O)c1cccc(-c2csc(C)n2)c1 | inactive
38 | Cc1onc(-c2ccccc2)c1C(=O)Nc1ccc(S(=O)(=O)N2CCOCC2)cc1 | inconclusive [inhibitor, partial curve, poor fit]
39 | CCc1ccc(-c2cc(C)no2)cc1S(=O)(=O)N1CCN(c2ccccc2F)CC1 | inconclusive [inhibitor, single point]
40 | CCOC(=O)c1[nH]c2cc3c(cc2c1NC(=O)CN1CCc2ccccc2C1)OCO3 | inconclusive [inhibitor, full curve, poor fit]
41 | O=C(Nc1ccccc1C(=O)NCc1ccc(Cl)cc1)c1ccco1 | inconclusive [inhibitor, full curve]
42 | CC(=O)Nc1ccc(-n2c(C)ccc2-c2ccccc2)cc1 | inactive
43 | COc1ccc(C(=O)/C=C/Nc2cc(C)on2)c(OC)c1 | inconclusive [inhibitor, single point]
44 | O=c1cc(O)c2sc(Nc3ccc(F)c(Cl)c3)nc2[nH]1 | inconclusive [inhibitor, partial curve]
45 | CN(C)CCN(C(=O)c1ccc2c(c1)OCCO2)c1nc2ccc(Cl)cc2s1 | inconclusive [inhibitor, single point]
46 | Cc1nc(-c2ccc(NC(=O)c3ccccc3)cc2)cs1 | active: 11.2 µM
47 | Cc1cc(C)nc(N2CCCC(CCC(=O)NCc3ccc(F)c(F)c3)C2)n1 (stereo unspecified) | inconclusive [inhibitor, single point]
48 | COC(=O)C1=C(c2ccc3ccccc3c2)C[C@@H]2CC[C@H]1N2C(=O)NCc1ccc(F)cc1 | inconclusive [inhibitor, single point]

Row | SMILES | Potency
49 | COC(=O)Nc1ccc(S(=O)(=O)N2CCC(C(=O)N(C)C3CCCCC3)CC2)cc1 | inconclusive [inhibitor, partial curve, poor fit]
50 | O=C(c1ccc2nsnc2c1)N1CCN(c2ccc([N+](=O)[O-])cc2)CC1 | inconclusive [inhibitor, single point]
51 | Cc1ccccc1N(C(=O)c1cccs1)c1nc2ccccc2s1 | inconclusive [inhibitor, single point]
52 | CCOC(=O)C1(Cc2ccc(Cl)cc2)CCN(Cc2cn(CC)nc2C)CC1 | inconclusive [inhibitor, single point]
53 | Cc1ccsc1/C=N/Nc1ncc(Cl)cc1Cl | active: 12.6 µM
54 | C=CCNC(=O)C1CCN(c2nc(C)cc(-c3ccccc3)n2)CC1 | active: 2.82 µM
55 | Cc1cc(C)c(C(=O)COC(=O)c2cccc(S(=O)(=O)NCc3ccccc3)c2)cc1C | inconclusive [inhibitor, single point]
56 | COc1ccc(-c2c(C)c3ccc(O)cc3oc2=O)cc1OC | inactive
57 | NC(=O)c1nn(CC(=O)Nc2cccc(S(=O)(=O)N3CCCCCC3)c2)c(=O)c2ccccc12 | inconclusive [inhibitor, single point]
58 | OCCC1CN(Cc2cccc3nccnc23)CCN1Cc1ccc(F)cc1 (stereo unspecified) | inactive
59 | O=C(NC(=S)Nc1ncc(Br)cc1Br)c1cncc(Br)c1 | inactive
60 | O=C(CCl)Nc1ccc2c(c1)OCO2 | inconclusive [inhibitor, single point]
61 | Cc1ccc(Cn2c(=N)c(C(=O)NC3CCCC3)cc3c(=O)n4ccccc4nc32)cc1 | inconclusive [inhibitor, full curve]
62 | CCOc1ccc(N(CC(=O)NC2CCCCC2)S(=O)(=O)c2ccc(C)cc2)cc1 | inactive
63 | CC(C)(C)C1CCC2(CC1)C(C#N)=C(SCC(=O)Nc1ccccc1)NC(=O)C2C#N (stereo unspecified) | inconclusive [inhibitor, single point]
64 | O=[N+]([O-])c1cc(S(=O)(=O)NCCCN2CCOCC2)ccc1Cl | active: 10 µM
65 | Cc1ccc(-c2ccc(/C=C/C(=O)c3ccccc3)o2)cc1 | inactive
66 | O=C(COc1ccc(/C=N/NC(=O)c2ccccc2O)cc1)Nc1ccc([N+](=O)[O-])cc1 | inconclusive [inhibitor, single point]
67 | COc1cc(OC)cc(C(=O)N2CCC(N3CCN(c4ccccc4OC)CC3)CC2)c1 | inactive
68 | Cc1ccc(C)c(NS(=O)(=O)c2cc(C(=O)NCCSC3CCCCC3)ccc2C)c1 | inconclusive [inhibitor, single point]
69 | CC[C@@H](CCC=C(C)C)C(=O)N(Cc1ccccc1)c1ccccc1 | inconclusive [inhibitor, single point]
70 | CSc1nnc(C)c(=O)n1COC(=O)COc1ccc(Cl)cc1 | inactive
71 | O=C1C2=C(Nc3ccccc3SC2c2ccco2)c2ccccc21 (stereo unspecified) | inconclusive [inhibitor, single point]
